# Assay results taken from the supplement of paper PMC3334620.
# Whole data set: some 33,000 sequences, median “E-score (-0.5 to 0.5)” near -0.041, cut for the highest 2% near 0.37. The list shows a part of the results.
# Molecular target: T1, Ecm22 (UniProt Q05958)
# T1 sequence: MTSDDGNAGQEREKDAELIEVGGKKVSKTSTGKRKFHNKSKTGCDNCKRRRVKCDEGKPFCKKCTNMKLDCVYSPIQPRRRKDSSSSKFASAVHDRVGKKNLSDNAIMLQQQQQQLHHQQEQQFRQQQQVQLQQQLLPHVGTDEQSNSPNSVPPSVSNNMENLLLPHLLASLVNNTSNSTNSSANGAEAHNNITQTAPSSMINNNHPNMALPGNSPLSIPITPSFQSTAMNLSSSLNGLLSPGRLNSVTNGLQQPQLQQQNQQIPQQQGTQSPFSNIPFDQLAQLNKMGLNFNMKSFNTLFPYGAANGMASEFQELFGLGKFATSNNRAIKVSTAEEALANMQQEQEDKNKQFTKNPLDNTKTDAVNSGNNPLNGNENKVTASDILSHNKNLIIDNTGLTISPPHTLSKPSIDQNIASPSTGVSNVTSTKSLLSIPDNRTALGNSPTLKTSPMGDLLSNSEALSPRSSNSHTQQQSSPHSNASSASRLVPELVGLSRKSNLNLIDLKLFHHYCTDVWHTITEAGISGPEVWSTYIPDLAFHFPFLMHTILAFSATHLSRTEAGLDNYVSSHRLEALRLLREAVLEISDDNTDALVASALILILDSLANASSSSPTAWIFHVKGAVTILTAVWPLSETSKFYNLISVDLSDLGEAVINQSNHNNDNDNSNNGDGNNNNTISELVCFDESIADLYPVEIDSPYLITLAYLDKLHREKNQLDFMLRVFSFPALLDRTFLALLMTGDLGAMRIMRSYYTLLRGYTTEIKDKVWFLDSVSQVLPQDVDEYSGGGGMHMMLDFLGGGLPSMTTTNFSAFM
# Experiment: PBM E-score (8-mer binding enrichment) (E-score (-0.5 to 0.5)); higher = stronger / more preferred TF binding; most listed sequences are background and not binding sites
# Details: protein concentration: 200 nM; construct: GST-full length
# Summary of the method: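 Universal all-10-mer Agilent arrays, double-stranded by primer extension on fresh or once-stripped slides, were probed with about 100-200 nM GST-tagged yeast transcription factors made by PURExpress. Fluorescent anti-GST detected bound protein, and masliner normalised the scans. E-scores from the Universal PBM Analysis Suite were given to each ungapped eight-base word pooled with its reverse complement.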
row,Sequence,PBM E-score
1,CCTTAATA,-0.122
2,CACTCTCC,-0.264
3,CAAGATAG,-0.0323
4,GGTACAGA,-0.0866
5,GCGATTAC,0.144
6,CATCCTGC,-0.161
7,CCACTCAC,-0.0565
8,GACCGCGA,0.156
9,GTATGAGA,0.0501
10,ATAGCAAA,-0.0689
11,CATGCGGC,-0.224
12,GCAAGCCC,-0.12
13,AAGCGCGG,-0.113
14,ATGAGGAA,-0.0353
15,CCAAGCGA,0.219
16,CCCGACAC,-0.135
17,CAAGTTGG,-0.226
18,ATCCCATA,-0.119
19,ATACTGCG,0.136
20,AGTCACAA,-0.0742
21,CATGGTCC,-0.197
22,CAGGTACC,-0.126

row,Sequence,PBM E-score
1,AGTCTGCG,-0.106
2,CCTCCTCG,0.144
3,GAACGGGC,0.338
4,GAAGCGTC,0.00657
5,AGACCGAT,-0.0254
6,AGCATCCC,-0.268
7,CACATGGG,-0.238
8,GTTGGGGA,-0.177
9,AGTGGGTA,-0.00122
10,ACTACAAC,0.0838
11,TATGGGAA,-0.0838
12,AAAAACGA,0.323
13,CACGCAGA,0.0454
14,TCTCCGCA,-0.151
15,CCTCCCGC,-0.147
16,ACAGGACC,-0.288
17,AGCACGAG,0.221
18,GGTATCAA,-0.265
19,CGAGAACG,0.297
20,ATGTCGCG,0.158
21,AGGGATCC,-0.0933
22,ACTTGTTC,0.0403

row,Sequence,PBM E-score
1,GCGAGACC,0.139
2,GCTGACCA,-0.0795
3,GAAGAACC,0.0504
4,AATGAATT,-0.00037
5,CAACTAGA,-0.169
6,AAGATATC,-0.123
7,GAGTAGGA,-0.118
8,CTATTTGC,-0.161
9,CCTCGTTA,0.402
10,GTCAAATA,0.063
11,GCGGCTTA,-0.0737
12,CGCACTTC,0.0345
13,AAATTACA,0.142
14,CTTATATA,0.193
15,AGGGGAAA,-0.223
16,AACTGCGC,-0.0255
17,CCGTGACG,-0.222
18,AATTGGCG,0.049
19,GATGATGA,0.0734
20,GTAGCCAC,-0.228
21,CAACGTCC,-0.146
22,AAGATTTG,0.0188

row,Sequence,PBM E-score
1,AAGATTGT,0.00384
2,ATTACTCC,-0.138
3,GATTAGAA,0.0243
4,CTATGTTA,-0.0263
5,CTTCAGAC,-0.153
6,CCGTTTAC,0.416
7,CATGTACA,-0.0676
8,CACGGCTC,-0.135
9,GCGTACAA,0.243
10,ACTATGCG,0.294
11,ATGACCTC,-0.132
12,AATGGTCT,-0.274
13,AGCATGAA,-0.072
14,CTCGCATC,0.304
15,ACTCAGCG,-0.226
16,GGGCAAGA,0.0255
17,ACATAACC,-0.0386
18,ATTTGGTC,0.023
19,ACGCATCC,0.206
20,CCTTTTGA,0.0464
